Our source for the binding signal values is publication PMC12136788.

B1: chr7:135612270:135612271:-_ENSG00000105887_ENST00000393085|hu_mus|hu_hu_hu_mus_False|18_88 (ssRNA)
RNA: GGGAGUUCUACAGUCCGACGAUCGUUUUUUUCUGAGAUGUUAAAUAUUCAGUGGAGGGAAAACAAAACUUAACCUUUUAUUAAUGCGUGUUGUACCAAAAGCAGACAUUUUAGCUUGCUUCCUUUAAAAAUAUUAACAUUAAGCAACAGAGGAUUGAGCAUCA
B2: chr21:34922442:34922443:+_ENSG00000159140_ENST00000381679|hu_hu|motif|central (ssRNA)
RNA: GGGAGUUCUACAGUCCGACGAUCCUCAGUAGGUGUCUCUGAUGAUACCACAAGGGUUUCUGAAGGCUCUAACACUUUUGCGGCUGGGGGCUCUACCAACAUGAUCUUUGAUGGCUCUGGAGAUGUGCUCUCCACAGAUUUCAGCAACAGAGGAUUGAGCAUCA
B3: chr11:87793471:87793472:-_ENSMUSG00000020483_ENSMUST00000020775|mus_mus|mus_mus_mus_hu_False|48_48 (ssRNA)
RNA: GGGAGUUCUACAGUCCGACGAUCUGGACUUGAAAAUAAAAGAAUAAGCUGGAUCCCCCACCCCCCCACAUUGUCAACCCUACACGAGUUCUGAAUGGGCGACUCAUGAAAAUCAGCAGCUCAAACGGCAAUGACCACCCCACCCAACAGAGGAUUGAGCAUCA
B4: 104370750_104373640_372_CDS_ENSG00000139372_ENST00000392872|human|control|control (ssRNA)
RNA: GGGAGUUCUACAGUCCGACGAUCUCUGGGUUUUCUUUUUCUUCCUUUUGGAGCCUCUUGCACUGGUUCCUGAGCAGGAGCUGGGGCUGGAACUUCUUCUGGCAUUUGCUGUUCAUUCACAACUGCCAUAUUAGGAGCUUCAGCCAACAGAGGAUUGAGCAUCA
B5: chr2:217001844:217001845:+_ENSG00000079246_ENST00000392132|hu_hu|hu_hu_hu_mus_False|18_98 (ssRNA)
RNA: GGGAGUUCUACAGUCCGACGAUCACCAACUUGAGGAUUAGCUCUUUUGUCAUAAGCAUAUCGGACGAUGGCGACCAUGUUUAACUCAUCCAAAGCAUGAACGAGAGAGGAAAGGGCAACUGCAGCUGCCUCAUCAUCCUUUGCCAACAGAGGAUUGAGCAUCA
B6: 110440431_110441028_1743_CDS_ENSG00000134987_ENST00000506538|human|control|control (ssRNA)
RNA: GGGAGUUCUACAGUCCGACGAUCUACCGUGGAAAAUGACUGAAGAGUUCCAUCUUGACUUGCACUUAGAAUCUGCUGUCCAUUCUGUCCAUAAUAUCUGAUAUUGGUAAGAGGAGCACUAUGACCCAUUCUGAAUCUCAAAAGCAACAGAGGAUUGAGCAUCA
B7: chr8:97153689:97153690:+_ENSMUSG00000050079_ENSMUST00000060389|mus_hu|FALSE|FALSE (ssRNA)
RNA: GGGAGUUCUACAGUCCGACGAUCAUCUAGUAACAAUGUUAUAACAGCUGGUCCCAGUGGAUCUUCCAGUGGAAUAACUCUAAUUAAAGACUGGACAACAUCCAACCAUCCUUCAUCUGUUUCUGCCAUUUCGUGUAAUGUUAUCAACAGAGGAUUGAGCAUCA
B8: chr4:17845017:17845018:+_ENSG00000109805_ENST00000514176|hu_mus|hu_hu_hu_mus_False|8_78 (ssRNA)
RNA: GGGAGUUCUACAGUCCGACGAUCGCUCUCUUAACUUGUAUCUUCAUUAAGGAACUCGCAAGGUUAAAGUUUACUUUUCUGUAGCGCAGCUGUUUUGGCUCGUCUGGGUAAUCUCAUCUUCAUUUCUAUUCUGGUUCCAUGAUCCAACAGAGGAUUGAGCAUCA
B9: chr7:90019490:90019491:+_ENSMUSG00000057706_ENSMUST00000082237|mus_mus|motif|central (ssRNA)
RNA: GGGAGUUCUACAGUCCGACGAUCUCCGUCACAAUCGUGUGAUUAUUAAAAUAAUACAGUGUUCUUUGCCAUAAGGCCAUACGGAAAAUAAAAAGAUUUAACCCAGCUACAAAAAAGUUCACUGAACUUAAAUUAAAAUACUUGCAACAGAGGAUUGAGCAUCA
B10: 16802499_16805016_666_CDS_ENSMUSG00000024304_ENSMUST00000115850|mouse|control|control (ssRNA)
RNA: GGGAGUUCUACAGUCCGACGAUCAUCAUUCAUGUCAAUAACAUUGAUGACAAUGUCAAUGGGGUUCUCCACUUGAUUGCCAUUGAUGUCCACUGCAUGUGCUCUCAAGUGAAACCGGGCUAUCAGCUCUCGAUCCAGAGGCUUCAACAGAGGAUUGAGCAUCA
B11: chr19:47610742:47610743:-_ENSMUSG00000042694_ENSMUST00000049369|mus_mus|FALSE|FALSE (ssRNA)
RNA: GGGAGUUCUACAGUCCGACGAUCUGGCACUUGUUGGGACUCCUUCAUCUCCAGGAUAUCCUUGAUGUAGAGUUUUGCAAAGGCUAGAAACACAGGAUCCAGACCCCAAAAGAGGGGCGGGAUCUCCUCUUCCCUUGGACUGGACAACAGAGGAUUGAGCAUCA
B12: chr14:66974463:66974464:+_ENSMUSG00000022044_ENSMUST00000074523|mus_hu|mus_mus_mus_hu_False|38_58 (ssRNA)
RNA: GGGAGUUCUACAGUCCGACGAUCUUGUAGGACGACUUAUUCAGGGGAUCGGCCAGGAAGCAGGAGCAGAACAAGGACACUAGUGGGAGCUCCUUCAUCUUCUCCUUGUAGGCAGCAAGGGUCAUGUUUCUGGGAUCUGGUGGCCAACAGAGGAUUGAGCAUCA
B13: chr11:77336104:77336105:-_ENSG00000074201_ENST00000525064|hu_hu|FALSE|FALSE (ssRNA)
RNA: GGGAGUUCUACAGUCCGACGAUCUUCGCACAUUGCAGUGAACAUUGCCUCCAACGCUGAUUUAUCACUAGGCACAAAUCUAAAUUCAGUAAUAGGUUCAACAUCAUCAUCACUGUCUUCCUCUUCUUCAUCAGCAACAGGUUCCAACAGAGGAUUGAGCAUCA
B14: chr8:28385162:28385163:+_ENSG00000104290_ENST00000537916|hu_hu|FALSE|FALSE (ssRNA)
RNA: GGGAGUUCUACAGUCCGACGAUCGUGAAACAGCAAUGCUUUCUUCUCAAUAGCUUCACUACCCCACUUUGGCACAGCUGCUAAAAACCAUGUGAUGGUAAGAAUUACCCACCAUACACUGCCAGCCAUAGUAAAAAAAUAGAGCAACAGAGGAUUGAGCAUCA
B15: chr1:231488893:231488894:+_ENSG00000010072_ENST00000295050|hu_mus|motif|central (ssRNA)
RNA: GGGAGUUCUACAGUCCGACGAUCGACCAGCCGCCGUUGACUGCUCAAGCUCUGAGGAGCGCUGGCGGCUGUGGGCUGUGAGCGGCUCCGAAGGUCACCACCACUUUGUGUUUGUUCCUUGAUAGUAUCCAAAGCAGUCCUGUCCAACAGAGGAUUGAGCAUCA
B16: chr12:48362563:48362564:+_ENSG00000134291_ENST00000256686|hu_hu|hu_hu_hu_mus_False|18_28 (ssRNA)
RNA: GGGAGUUCUACAGUCCGACGAUCUCCGUCAAGCCCUUCGAUAGACCCUUGCGGGGGAAACUGUAAUCACUUUGUAUGGGGAAGGAAAAGAAACGCCAAAAACUUUCUUUCUUUCUUUUCAAAAAGCAGGCGGGAGGGGGAGGUCAACAGAGGAUUGAGCAUCA
B17: chr12:39763582:39763583:-_ENSG00000139116_ENST00000544797|hu_mus|hu_hu_hu_mus_False|8_108 (ssRNA)
RNA: GGGAGUUCUACAGUCCGACGAUCCUCUAAGAAUUGGGCAUUCACUUUGAAUUCAGGAGGGGGCAGCCCGUUUUUAAUCGCUGAGGUCUUUUUCUCAUCAAUACUCUUGAACAGGUGUCUAACAGCACGAGAAAUAAUGCCCUGCAACAGAGGAUUGAGCAUCA
B18: chr20:20006332:20006333:+_ENSG00000173418_ENST00000334982|hu_mus|FALSE|FALSE (ssRNA)
RNA: GGGAGUUCUACAGUCCGACGAUCAGGUGCUUCAGCGACGAUGAAAUACUCUGGCCAGUGCGCAAGGUACUGUAAGUAAAAAGGAAUCCCAUAAGUUUCUGUAAGUGGAUCCAAGUUAAUGUUGUUGAAGCGGAACAGGUCGUCCAACAGAGGAUUGAGCAUCA
B19: chr7:125984895:125984896:+_ENSMUSG00000030982_ENSMUST00000106553|mus_hu|motif|central (ssRNA)
RNA: GGGAGUUCUACAGUCCGACGAUCGGCCAAAGCUUAAAACAAUUUGUACAUAUGUAAAAAGAAAAGAAAAAUGAGAAACCGGAAUUGCCGUAAGAGUUCAGGGCAGCAGAGCAGAUCUUUCUGGAUUUGGCACCAGAGUCCCUGCAACAGAGGAUUGAGCAUCA
B20: 33187190_33194627_218_3pUTR_ENSMUSG00000054280_ENSMUST00000120129|mouse|control|control (ssRNA)
RNA: GGGAGUUCUACAGUCCGACGAUCGUCUUUUGCAUCAAUGGUUUACCCUUGAGAAAAGGGCUUUCUUUUCCAAAGAUUCAGAUCCUGCAGCCAGCCCCUCCAUAAGGGACAUUCAGACACUGUAUCCAAUUCUUCCAUGAGGGACAACAGAGGAUUGAGCAUCA
B21: chr15:8067299:8067300:+_ENSMUSG00000022142_ENSMUST00000163765|mus_mus|FALSE|FALSE (ssRNA)
RNA: GGGAGUUCUACAGUCCGACGAUCGAUUCUGCCAUUAUCCGUGGACGUGAUUGUUAAAAGGUACGUGUUGUCCGUGGGAAGAGAAUAUAAGGGAUCUGGAAGCAGCUGCAUGCCGCCACACAUGCUGUCAUUGAGAAUGCCAGACAACAGAGGAUUGAGCAUCA
B22: chr1:109605286:109605287:-_ENSG00000197780_ENST00000461096|hu_mus|hu_hu_hu_mus_True|1_88 (ssRNA)
RNA: GGGAGUUCUACAGUCCGACGAUCAAGUUUCAGAGUAACAUUCAGUAUACUUAAAUCAUGCAAUUAUCCUUAUUAUAAGCUAAGCAGAAUAAUAAUUUAAUACCGUAAGUGAACUACACACAAAGCCUGAACCGCGAAACUACACAACAGAGGAUUGAGCAUCA

The other results are listed elsewhere or left out.

This experiment addresses T1, UNK ZnF1-3 (human, UniProt Q9C0B0 31-174).
T1 sequence: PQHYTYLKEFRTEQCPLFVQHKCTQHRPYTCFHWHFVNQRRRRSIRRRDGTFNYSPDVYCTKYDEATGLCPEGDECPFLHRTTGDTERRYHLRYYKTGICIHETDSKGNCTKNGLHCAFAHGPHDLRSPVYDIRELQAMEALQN
Briefly: nsRBNS (natural sequence RNA bind-n-seq); RBNS binding buffer (assumed for nsRBNS): 25 mM Tris pH 7.5, 150 mM KCl, 3 mM MgCl2, 0.01% Triton X-100, 500 ug/ml BSA, 20 U/ml SUPERase-In, 4 C; UNK is unkempt and MSI1 is Musashi-1; names of the RNAs are library labels; protein concentration not given here; high values mean tight binding.
The molecule B1 yielded a binding signal of 1.35 enrichment R. Molecule B2 yielded a binding signal of 0.536 enrichment R.

B3 yielded a binding signal of 1.88 enrichment R. Then B4, with 0.346 enrichment R. Then B5, with 1.77 enrichment R; and B6, with 1.24 enrichment R; and B7, with 0.926 enrichment R. Molecule B8 registered a binding signal of 0.429 enrichment R. For B9 the value was 1.38 enrichment R; for B10, 0.627 enrichment R; for B11, 0.656 enrichment R.

B12 came in with a binding signal of 2.15 enrichment R.

Regarding B13, the binding signal came out at 1.18 enrichment R.

B14: the binding signal turned out to be 1.9 enrichment R.

B15 showed a binding signal of 1.09 enrichment R.

On to B16, for which the binding signal is 1.58 enrichment R. Molecule B17 registered a binding signal of 1.75 enrichment R. For B18 the value was 1.09 enrichment R; for B19, 2.31 enrichment R; for B20, 0.709 enrichment R. Then B21, with 1.04 enrichment R; and B22, with 0.609 enrichment R.
